Paper PMC9574860, “Chemical Toolkit for PARK7: Potent, Selective, and High-Throughput” (Journal of Medicinal Chemistry, 2022)
About 400 (5.1%) of roughly 7,900 compounds showed an effect of 50% or more. Some of the results follow.

What follows are compounds tested against Parkinson's disease protein 7 (PARK7/DJ1) (human, UniProt Q99497) (assay: primary screen, percent inhibition; read as competition with a fluorescent probe by fluorescence polarization; higher = more effect of the substance). Settings: 100 µM.
Sequence of Parkinson's disease protein 7 (PARK7/DJ1) (Q99497 whole entry, looked up, the tested form may be a part): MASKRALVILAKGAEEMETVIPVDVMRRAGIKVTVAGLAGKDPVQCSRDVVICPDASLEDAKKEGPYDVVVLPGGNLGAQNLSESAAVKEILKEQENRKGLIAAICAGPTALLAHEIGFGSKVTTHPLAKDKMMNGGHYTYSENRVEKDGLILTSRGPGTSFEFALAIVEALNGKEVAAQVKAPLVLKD
How it was run: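 Fluorescence-polarization probe displacement (JYQ-107, 20 nM final, 2 h) after 2 h preincubation of PARK7 (0.2 μM final) with each fragment at 100 μM final. Read-out ex/em 480/520 nm; remaining activity derived from FP signal loss relative to reference controls.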
For O=C(CN1CCSC1=O)Nc1ccc(Cl)c(Cl)c1, the Inhibition % was 0.617%.
In the case of C=CC(=O)N1CC(=O)N(C(C)C)C(C)(C)C1, the Inhibition % is reported as 10.9%.
For CC1(C)OB(c2csc(C(F)(F)F)n2)OC1(C)C, the Inhibition % was 5.39%.
With C[C@@H]1C[C@@H](OS(C)(=O)=O)CCO1 (racemic) the Inhibition % was 18.4%.
CCSc1cccnc1C#N was tested, and the Inhibition % was 7.64%.
CC1CC(SC(C)C(C)O)C(=O)O1 (centres unmarked) gave an Inhibition % of 3.91%.
Compound Cc1cccc(OCC(=O)Nc2ccc(S(=O)(=O)F)cc2)c1 has an Inhibition % of 9.17%.
Compound CC1CN(C(=O)C=Cc2nc3ccccc3o2)CCO1 (centres unmarked) has an Inhibition % of 16.4%.
Compound CCOC(=O)C1CCN(C(=O)CCl)CC1 has an Inhibition % of 19.7%.
O=C1OCCC1Nc1ccc2c(c1)CCCO2 (centres unmarked) was tested, and the Inhibition % was 28.6%.
In the case of COc1cc(C=C(C#N)C(N)=S)ccc1O, the Inhibition % is reported as 1.24%.
O=S(=O)(F)c1ccc(-c2cn(CC3CC(F)(F)C3)nn2)cc1 showed an Inhibition % of 2.81%.
Compound C=CC(=O)N1CCCC2(C1)OCc1ccccc12 (centres unmarked) has an Inhibition % of 6.47%.
Compound C=CC(=O)NCC(O)c1cc2ccccc2s1 (centres unmarked) has an Inhibition % of 7.61%.
O=C(O)Cn1nc(-c2cccs2)oc1=O gave an Inhibition % of 2.32%.
For C=CC(=O)NC(C)c1c(C)noc1C (centres unmarked), the Inhibition % was 11.1%.
O=C(CCl)N1CCN(S(=O)(=O)Cc2ccccc2)CC1 was tested, and the Inhibition % was 13.1%.
For Nc1cccnc1S(=O)(=O)F, the Inhibition % was 81.4%.
For CSC1CCCC1N(C)CCN1C(=O)CCC1=O (centres unmarked), the Inhibition % was 11%.
N#CC(=Cc1ccc(N)nc1)C(=O)NC1CCCC1 gave an Inhibition % of -3.77%.
For O=C1OCCC1Sc1ncc(-c2ccc(F)cc2)o1 (centres unmarked), the Inhibition % was 40.5%.
With C=CC(=O)NCC1CCC(C(N)=O)CC1 (centres unmarked) the Inhibition % was 11.8%.
For Cc1ccnc(S)c1, the Inhibition % was 8.62%.
In the case of C=CC(=O)N1CCN(c2cccs2)CC1, the Inhibition % is reported as 5.52%.
O=C(CCl)NC1c2ccccc2-c2ccccc21 gave an Inhibition % of 4.21%.
Compound C=CC(=O)NC1CCC(N2CCCCC2)C1 (centres unmarked) has an Inhibition % of 9.75%.
CCN(CC)S(=O)(=O)c1cccc(NC(=O)CCl)c1 was tested, and the Inhibition % was 22.5%.
O=C1NC(c2ccccc2)C12CCCC2 (centres unmarked) showed an Inhibition % of 3.32%.
With Cc1nc(C#N)[nH]c1C the Inhibition % was 3.54%.
COc1ccc(CCNC(=O)n2ccnc2)cc1OC showed an Inhibition % of 10.3%.
In the case of C=CC(=O)N1CC(C)(C)OC2(CCCC2)C1, the Inhibition % is reported as 3.79%.
Work on O=S(=O)(F)CCSc1nnc2sc3ccccc3n12 yielded an Inhibition % of 7.67%.
CC1(C)OB(c2cnc3c(c2)OCO3)OC1(C)C gave an Inhibition % of 10.4%.
CCc1cc2c(=O)n(CCS(=O)(=O)F)cnc2s1 gave an Inhibition % of 9.17%.
Work on Cc1cnc(CCNS(=O)(=O)C=Cc2ccccc2)s1 yielded an Inhibition % of 7.5%.
With C=CC(=O)NCC1CC2(CCOCC2)CO1 (centres unmarked) the Inhibition % was 5.16%.
Compound C#CC(=O)N1CCC(C)(C(=O)O)CC1 has an Inhibition % of 6.42%.
Cc1cc2ncn(CC3CO3)c2cc1C (centres unmarked) gave an Inhibition % of 20.8%.
N#Cc1ncn(CCC(=O)Nc2cc(Cl)ccc2Cl)n1 gave an Inhibition % of 1.82%.
For COc1ccccc1C1=NOC(=O)C1, the Inhibition % was 14%.
C=CCNC(=O)C(C#N)=Cc1c(F)cccc1F was tested, and the Inhibition % was 27.7%.
CC1(C)OB(c2ccc(C(F)F)c(F)c2)OC1(C)C showed an Inhibition % of -1.1%.
CCOc1ccc(S(=O)(=O)n2ccnc2C)cc1C showed an Inhibition % of 12.5%.
Work on C=CC(=O)N1CCOC(C2CC2)(C2CC2)C1 yielded an Inhibition % of 2.67%.
Work on O=C(NC1CC1)c1cc(S)nc2ccccc12 yielded an Inhibition % of 4.88%.
Compound Fc1ccc(F)c(C2CO2)c1 (centres unmarked) has an Inhibition % of 9.22%.
With COC[C@@H]1C[C@@H](OC)CN1Cc1cc(C#N)n(C)c1 the Inhibition % was 15.6%.
Clc1ccccc1C1CO1 (centres unmarked) showed an Inhibition % of 5.56%.
With C=CC(=O)NCCCn1nc(C)cc1C the Inhibition % was -2.87%.
In the case of Cc1ccc2ccccc2c1B(O)O, the Inhibition % is reported as 0.986%.
O=C(Cn1c(-c2ccccc2)noc1=O)N1CCOCC1 showed an Inhibition % of 5.92%.
For O=C(O)C=CS(=O)(=O)c1ccccc1, the Inhibition % was 6.07%.
C=CC(=O)N1CCCC(c2ccccc2)C1 (centres unmarked) gave an Inhibition % of 4.78%.
NC(=O)c1ccc(OCCCl)cc1 gave an Inhibition % of -3.9%.
CC1(C)OB(c2ccc3c(c2)OCC3)OC1(C)C gave an Inhibition % of 17.4%.
Work on O=C(Nc1ccncc1)N1CCC(C2OCCO2)CC1 yielded an Inhibition % of 9.17%.
O=C(CCl)NC(c1ccccc1)c1ccc(Cl)cc1 (centres unmarked) gave an Inhibition % of 9.28%.
Work on COc1ccc(OC)c(NC(=O)CCl)c1 yielded an Inhibition % of 13.5%.
COC1(Cn2c(S)nc3ccccc3c2=O)CCOCC1 showed an Inhibition % of -1.4%.
N#Cc1ncn(CC(=O)N2CCCCC2)n1 gave an Inhibition % of 7.22%.
C=CC(=O)N1CCN(C(=O)c2cnccn2)CC1 was tested, and the Inhibition % was 1.2%.
N#Cc1ccnc2ccnn12 showed an Inhibition % of 4.63%.
Cc1occc1C(=O)N1CCN(C2CC(C)OC2=O)CC1 (centres unmarked) showed an Inhibition % of 17.2%.
Work on O=C(Cc1ccccc1Cl)N1CCCCC1C1OCCO1 (centres unmarked) yielded an Inhibition % of 14.3%.
Compound C=CC(=O)NC(C)Cn1cnnc1 (centres unmarked) has an Inhibition % of 13.5%.
N#Cc1c(NC(=O)CCl)sc2c1CCCCC2 showed an Inhibition % of 4.48%.
Compound N#Cc1ncn(Cc2c(F)cccc2Cl)n1 has an Inhibition % of 0.988%.
For Cc1nc(S)c(C#N)cc1C(=O)Nc1ccccc1, the Inhibition % was 10.1%.
C=CC(=O)NCc1nc(-c2cccc(C#N)c2)c[nH]1 showed an Inhibition % of 1.96%.
For COc1ccc(S(=O)(=O)n2ccnc2)cc1C(C)(C)C, the Inhibition % was 5.47%.
CC1(C)OB(c2cc3ccccc3o2)OC1(C)C gave an Inhibition % of 1.38%.
O=C(O)c1cnn(CCCl)c1 was tested, and the Inhibition % was 16%.
C=CC(=O)N1CCC2(CCCC2)C1 showed an Inhibition % of 2.45%.
CC1(C)OB(c2cnn(C(F)F)c2)OC1(C)C gave an Inhibition % of 7.69%.
Work on CC1CCc2ccccc2N1C(=O)Cn1cnc(C#N)n1 (centres unmarked) yielded an Inhibition % of 8.8%.
For C=CC(=O)N1CCc2ccccc2C(C)C1 (centres unmarked), the Inhibition % was 4.65%.
Cc1ccc(CN(C)S(=O)(=O)C=Cc2ccccc2)o1 gave an Inhibition % of 10.9%.
For CC1CC1C(=O)N1CCOC(CS(=O)(=O)F)C1 (centres unmarked), the Inhibition % was 11.8%.
Compound C=CC(=O)N(C)Cc1ccccn1 has an Inhibition % of 28.5%.
Compound N#Cc1ccc(S(=O)(=O)Nc2c(F)cccc2Cl)cn1 has an Inhibition % of 29.9%.
Cc1nn(C)c(Cl)c1C=CC(=O)N1CCCCC1CN (centres unmarked) gave an Inhibition % of 15.6%.
COC(=O)c1ccccc1S(=O)(=O)F gave an Inhibition % of 52.5%.
O=C(CCl)Nc1cc(Cl)ccc1[N+](=O)[O-] showed an Inhibition % of 1%.
Compound Cc1nn(S(=O)(=O)c2ccc(Cl)cc2)c(C)c1Cl has an Inhibition % of 6.1%.
Work on Cc1nnnn1C(=Cc1ccccc1)C(=O)N(C)C yielded an Inhibition % of 15%.
For CCC(C)c1ccc(-c2csc(NC(=O)CCl)n2)cc1 (centres unmarked), the Inhibition % was 8.03%.
C=CC(=O)NC1C(=O)NCC1(C)C (centres unmarked) gave an Inhibition % of 9.19%.
Compound COC(F)(F)C(F)(F)c1ccc(B2OC(C)(C)C(C)(C)O2)cc1 has an Inhibition % of 6.09%.
O=S(=O)(C=Cc1ccccc1)N1CCCn2ncnc21 showed an Inhibition % of 6.48%.
C=CC(=O)Nc1cc(OC)c(Cl)cc1OC gave an Inhibition % of 16%.
Work on C=CC(=O)NC(c1ccc(Cl)cc1)C1CN(C)CCO1 (centres unmarked) yielded an Inhibition % of 6.77%.
Compound C=CCNC(=O)C(C#N)=Cc1cccn1C has an Inhibition % of 17%.
CC(C)Cn1c(N)c(C(=O)CCl)c(=O)n(C)c1=O showed an Inhibition % of 6.06%.
C=CC(=O)N1CCCC(c2nc(C(F)(F)F)cn2C)C1 (centres unmarked) was tested, and the Inhibition % was 7.43%.
N#Cc1nc(N2CCCC(N3CCNC3=O)C2)ccc1Cl (centres unmarked) showed an Inhibition % of 1.45%.
CC(C)c1ccccc1NC(=O)CCl was tested, and the Inhibition % was 4.33%.
Cc1ccc(S(=O)(=O)F)cc1C(=O)O was tested, and the Inhibition % was 87.9%.
ClCC1CN(c2ccccc2)CCO1 (centres unmarked) gave an Inhibition % of 6.62%.
With CCCOc1cc(C)c(C)cc1S(=O)(=O)n1ccnc1C the Inhibition % was 8.09%.
With Cl.NC1CN(c2ccc(F)cc2)C1=O (centres unmarked) the Inhibition % was 3.13%.
Compound N#Cc1ncccc1S(=O)(=O)N1CCC(C(F)(F)F)CC1 has an Inhibition % of 5.48%.
CCOc1ccc(S(=O)(=O)n2ccnc2)c(C)c1C gave an Inhibition % of 2.03%.
Work on C=CC(=O)N1CCS(=O)(=O)[C@H](C)C1 yielded an Inhibition % of 9.29%.
For COc1cc(SC#N)ccc1O, the Inhibition % was 15.4%.
In the case of CCS(=O)(=O)CCN(C#N)c1ccc(F)c(Cl)c1, the Inhibition % is reported as 4.71%.
With O=C(CCl)NN(c1ccccc1)c1ccccc1 the Inhibition % was 10.3%.
COc1nsc(OC)c1B1OC(C)(C)C(C)(C)O1 gave an Inhibition % of 25.3%.
O=C(C1CCOCC1)N1CCCC(CS(=O)(=O)F)C1 (centres unmarked) was tested, and the Inhibition % was 55.9%.
For Cc1sc2ncn(CCS(=O)(=O)F)c(=O)c2c1C, the Inhibition % was 6.46%.
For Cc1nn(S(=O)(=O)c2ccc(Cl)cc2)c(C)c1C, the Inhibition % was 10%.
For O=C(NCC1CCC(O)C1)c1cccc(B(O)O)c1 (centres unmarked), the Inhibition % was 3.39%.
CCC(C)c1ccccc1NC(=O)CCl (centres unmarked) was tested, and the Inhibition % was 16.8%.
Cn1cc(COc2cccc(B3OC(C)(C)C(C)(C)O3)c2)cn1 showed an Inhibition % of 1.93%.
CCN(CC)S(=O)(=O)c1cc(NC(=O)CCl)ccc1C gave an Inhibition % of 7.16%.
For N#Cc1ncn(CCCOc2ccc(Cl)cc2)n1, the Inhibition % was 9.73%.
Compound C=CC(=O)N1CCC(C#N)(COC)CC1 has an Inhibition % of 5.2%.
Work on CC1(C)OB(c2ccc3c(c2Cl)NC(=O)CO3)OC1(C)C yielded an Inhibition % of -1.01%.
Work on CCc1ccc(OC)c(S(=O)(=O)n2ccnc2C(C)C)c1 yielded an Inhibition % of 17.9%.
CC1(C23CC4CC(CC(C4)C2)C3)CO1 (centres unmarked) was tested, and the Inhibition % was 7.91%.
C=CC(=O)NCc1ccc(Cn2ccccc2=O)cc1 gave an Inhibition % of 14.4%.
Cn1ccc(NS(=O)(=O)C=Cc2ccc(Cl)cc2)n1 gave an Inhibition % of 11.2%.
For Cc1nn(-c2ccccc2)c(C)c1C=C(C#N)C(=O)O, the Inhibition % was 6.36%.
